# Experimental data taken from the supplement of paper PMC8728848.
# Some of the results follow.
# B1: GH95CBM (Clostridium perfringens) (protein)
# chain: EKVAVETSVYLSELEWKSASTGYGEIQKDASCDGNTITLKGENGEKVSYDKGIGTHAHSEIVYSLEGLDYYDYFETFVGVDQEMAGTVASISFEVYLDNEKVFDSGLMTGDTTQKHVKVPIAGKNTLKLVVKDGGDSIGSDHGSFGDAKLT
# Columns and labels:
# Experiment in all cases: glycan array binding signal (z-score within array); higher = stronger binding
# Settings in all cases: glycan notation: IUPAC condensed, linker removed
# [1] = target: Gal(b1-3)[Fuc(a1-4)]GlcNAc(b1-3)Gal(b1-4)[Fuc(a1-3)]GlcNAc
# Method in brief: (§1)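 The Consortium for Functional Glycomics database supplied 3228 glycan arrays, of which those lacking an available protein sequence were dropped. The binding signal, a within-array Z-score, was averaged across arrays of the same protein sequence and across linkers. Negative scores can be read as non-binding.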
# [2] = target: Gal(b1-3)[GlcNAc(b1-6)]GalNAc
# Method in brief: as §1
# [3] = target: Gal(b1-3)[Neu5Ac(a2-6)]GalNAc
# Method in brief: as §1
# [4] = target: Gal(b1-3)[Neu5Ac(a2-6)]GlcNAc(b1-6)Gal(b1-4)Glc
# Method in brief: as §1
# [5] = target: Gal(b1-3)[Neu5Ac(b2-6)]GalNAc
# Method in brief: as §1
# [6] = target: Gal(b1-4)GalNAc(a1-3)[Fuc(a1-2)]Gal(b1-4)GlcNAc
# Method in brief: as §1
# [7] = target: Gal(b1-4)GalNAc(b1-3)[Fuc(a1-2)]Gal(b1-4)GlcNAc
# Method in brief: as §1
# Gal(b1-4)Glc = target: Gal(b1-4)Glc
# Method in brief: as §1
# Gal(b1-4)Glc6S = target: Gal(b1-4)Glc6S
# Method in brief: as §1
# Gal(b1-4)GlcNAc = target: Gal(b1-4)GlcNAc
# Method in brief: as §1
# [8] = target: Gal(b1-4)GlcNAc(a1-6)Gal(b1-4)GlcNAc
# Method in brief: as §1
# [9] = target: Gal(b1-4)GlcNAc(b1-2)Man(a1-3)[Gal(b1-4)GlcNAc(b1-2)Man(a1-6)]Man(b1-4)GlcNAc(b1-4)GlcNAc
# Method in brief: as §1
# [10] = target: Gal(b1-4)GlcNAc(b1-3)Gal(b1-3)GlcNAc
# Method in brief: as §1
# [11] = target: Gal(b1-4)GlcNAc(b1-3)Gal(b1-4)Glc
# Method in brief: as §1
# [12] = target: Gal(b1-4)GlcNAc(b1-3)Gal(b1-4)GlcNAc
# Method in brief: as §1
# [13] = target: Gal(b1-4)GlcNAc(b1-3)Gal(b1-4)GlcNAc(b1-3)Gal(b1-4)GlcNAc
# Method in brief: as §1
# [14] = target: Gal(b1-4)GlcNAc(b1-3)Gal(b1-4)[Fuc(a1-3)]GlcNAc(b1-3)Gal(b1-4)[Fuc(a1-3)]GlcNAc
# Method in brief: as §1
# [15] = target: Gal(b1-4)GlcNAc(b1-3)GalNAc
# Method in brief: as §1
# [16] = target: Gal(b1-4)GlcNAc(b1-3)[Gal(b1-4)GlcNAc(b1-6)]Gal(b1-4)GlcNAc
# Method in brief: as §1
# [17] = target: Gal(b1-4)GlcNAc(b1-3)[GlcNAc(b1-6)]Gal(b1-4)GlcNAc
# Method in brief: as §1
# [18] = target: Gal(b1-4)GlcNAc(b1-6)Gal(b1-4)GlcNAc
# Method in brief: as §1
# [19] = target: Gal(b1-4)GlcNAc(b1-6)Gal(b1-4)GlcNAc(b1-6)GalNAc
# Method in brief: as §1
# [20] = target: Gal(b1-4)GlcNAc(b1-6)GalNAc
# Method in brief: as §1
# [21] = target: Gal(b1-4)GlcNAc(b1-6)[Gal(b1-3)]GalNAc
# Method in brief: as §1
# Gal3S(b1-3)GalNAc = target: Gal3S(b1-3)GalNAc
# Method in brief: as §1
# Gal3S(b1-3)GlcNAc = target: Gal3S(b1-3)GlcNAc
# Method in brief: as §1
# [22] = target: Gal3S(b1-3)[Fuc(a1-4)]GlcNAc
# Method in brief: as §1
# Gal3S(b1-4)Glc = target: Gal3S(b1-4)Glc
# Method in brief: as §1
# Gal3S(b1-4)Glc6S = target: Gal3S(b1-4)Glc6S
# Method in brief: as §1
# Gal3S(b1-4)GlcNAc = target: Gal3S(b1-4)GlcNAc
# Method in brief: as §1
# Gal3S(b1-4)GlcNAc6S = target: Gal3S(b1-4)GlcNAc6S
# Method in brief: as §1
# [23] = target: Gal3S(b1-4)[Fuc(a1-3)]Glc
# Method in brief: as §1
# Gal3S4S(b1-4)GlcNAc = target: Gal3S4S(b1-4)GlcNAc
# Method in brief: as §1
# Gal3S6S(b1-4)GlcNAc = target: Gal3S6S(b1-4)GlcNAc
# Method in brief: as §1
# Gal3S6S(b1-4)GlcNAc6S = target: Gal3S6S(b1-4)GlcNAc6S
# Method in brief: as §1
# Gal4S(b1-4)GlcNAc = target: Gal4S(b1-4)GlcNAc
# Method in brief: as §1
# Gal4S6S(b1-4)GlcNAc = target: Gal4S6S(b1-4)GlcNAc
# Method in brief: as §1
# Gal6S(b1-4)Glc = target: Gal6S(b1-4)Glc
# Method in brief: as §1
# Gal6S(b1-4)Glc6S = target: Gal6S(b1-4)Glc6S
# Method in brief: as §1
# Gal6S(b1-4)GlcNAc = target: Gal6S(b1-4)GlcNAc
# Method in brief: as §1
# Gal6S(b1-4)GlcNAc6S = target: Gal6S(b1-4)GlcNAc6S
# Method in brief: as §1
# GalNAc(a1-3)Gal = target: GalNAc(a1-3)Gal
# Method in brief: as §1
# GalNAc(a1-3)GalNAc = target: GalNAc(a1-3)GalNAc
# Method in brief: as §1
# GalNAc(b1-3)Gal = target: GalNAc(b1-3)Gal
# Method in brief: as §1
# [24] = target: GalNAc(b1-3)Gal(a1-4)Gal(b1-4)GlcNAc
# Method in brief: as §1
binder,measurement,setting,value
B1,glycan array binding signal (z-score),[1],0.524
same,glycan array binding signal (z-score),[2],-0.121
same,glycan array binding signal (z-score),[3],-0.325
same,glycan array binding signal (z-score),[4],-0.359
same,glycan array binding signal (z-score),[5],-0.298
same,glycan array binding signal (z-score),[6],-0.321
same,glycan array binding signal (z-score),[7],4.18
same,glycan array binding signal (z-score),Gal(b1-4)Glc,1.72
same,glycan array binding signal (z-score),Gal(b1-4)Glc6S,-0.33
same,glycan array binding signal (z-score),Gal(b1-4)GlcNAc,-0.358
same,glycan array binding signal (z-score),[8],-0.283
same,glycan array binding signal (z-score),[9],1.83
same,glycan array binding signal (z-score),[10],-0.319
same,glycan array binding signal (z-score),[11],-0.332
same,glycan array binding signal (z-score),[12],-0.281
same,glycan array binding signal (z-score),[13],-0.269
same,glycan array binding signal (z-score),[14],2.8
same,glycan array binding signal (z-score),[15],2.54
same,glycan array binding signal (z-score),[16],-0.311
same,glycan array binding signal (z-score),[17],-0.326
same,glycan array binding signal (z-score),[18],-0.277
same,glycan array binding signal (z-score),[19],-0.334
same,glycan array binding signal (z-score),[20],-0.293
same,glycan array binding signal (z-score),[21],3.34
same,glycan array binding signal (z-score),Gal3S(b1-3)GalNAc,-0.327
same,glycan array binding signal (z-score),Gal3S(b1-3)GlcNAc,-0.295
same,glycan array binding signal (z-score),[22],-0.388
same,glycan array binding signal (z-score),Gal3S(b1-4)Glc,-0.345
same,glycan array binding signal (z-score),Gal3S(b1-4)Glc6S,-0.242
same,glycan array binding signal (z-score),Gal3S(b1-4)GlcNAc,-0.305
same,glycan array binding signal (z-score),Gal3S(b1-4)GlcNAc6S,-0.305
same,glycan array binding signal (z-score),[23],-0.328
same,glycan array binding signal (z-score),Gal3S4S(b1-4)GlcNAc,-0.295
same,glycan array binding signal (z-score),Gal3S6S(b1-4)GlcNAc,-0.298
same,glycan array binding signal (z-score),Gal3S6S(b1-4)GlcNAc6S,-0.208
same,glycan array binding signal (z-score),Gal4S(b1-4)GlcNAc,-0.339
same,glycan array binding signal (z-score),Gal4S6S(b1-4)GlcNAc,-0.321
same,glycan array binding signal (z-score),Gal6S(b1-4)Glc,-0.349
same,glycan array binding signal (z-score),Gal6S(b1-4)Glc6S,-0.149
same,glycan array binding signal (z-score),Gal6S(b1-4)GlcNAc,-0.248
same,glycan array binding signal (z-score),Gal6S(b1-4)GlcNAc6S,-0.36
same,glycan array binding signal (z-score),GalNAc(a1-3)Gal,0.021
same,glycan array binding signal (z-score),GalNAc(a1-3)GalNAc,-0.24
same,glycan array binding signal (z-score),GalNAc(b1-3)Gal,3.84
same,glycan array binding signal (z-score),[24],6.95
